According to PMC8813941:
These are yes or no findings as the source states them, for the method shown. Binding seen in cells or lysates may run through a third protein. Some entries that bind do so weakly or less than the wild type. For some assays here: Tags and fused reporters may be left off the sequences shown.

Chains of the proteins cited; added tags and fusions are not shown. Lines headed by an entry give the natural chain unless they say otherwise; changes in a name come on top. A line that says so, or that is headed by a name, gives the form on record, which may keep a tag or linker. Residues count along the entry.
UniProt Q969H0: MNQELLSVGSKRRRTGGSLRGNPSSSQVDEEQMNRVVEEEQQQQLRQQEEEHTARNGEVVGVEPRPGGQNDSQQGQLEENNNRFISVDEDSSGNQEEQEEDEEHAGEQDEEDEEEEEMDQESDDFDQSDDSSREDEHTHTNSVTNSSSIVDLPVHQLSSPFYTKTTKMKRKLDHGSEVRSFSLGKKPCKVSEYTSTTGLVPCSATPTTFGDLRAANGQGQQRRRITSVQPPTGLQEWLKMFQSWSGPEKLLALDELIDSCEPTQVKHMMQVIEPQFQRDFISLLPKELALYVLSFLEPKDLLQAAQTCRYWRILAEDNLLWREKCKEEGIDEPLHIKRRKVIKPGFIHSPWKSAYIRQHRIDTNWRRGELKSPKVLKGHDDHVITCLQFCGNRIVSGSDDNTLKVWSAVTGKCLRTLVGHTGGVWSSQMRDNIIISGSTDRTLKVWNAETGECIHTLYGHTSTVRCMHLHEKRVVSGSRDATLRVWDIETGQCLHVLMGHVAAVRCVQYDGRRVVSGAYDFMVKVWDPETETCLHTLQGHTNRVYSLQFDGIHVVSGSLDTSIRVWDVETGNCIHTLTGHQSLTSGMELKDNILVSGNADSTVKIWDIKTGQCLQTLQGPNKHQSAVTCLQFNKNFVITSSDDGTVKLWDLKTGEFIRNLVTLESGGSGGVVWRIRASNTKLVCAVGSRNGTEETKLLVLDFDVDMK
Myc-FBXW7-1–324 (WD40 domain-deleted mutant): residues 1-324 of Q969H0
Myc-FBXW7-1–278 (WD40/F-box domain-deleted mutant): residues 1-278 of Q969H0
UniProt Q13620: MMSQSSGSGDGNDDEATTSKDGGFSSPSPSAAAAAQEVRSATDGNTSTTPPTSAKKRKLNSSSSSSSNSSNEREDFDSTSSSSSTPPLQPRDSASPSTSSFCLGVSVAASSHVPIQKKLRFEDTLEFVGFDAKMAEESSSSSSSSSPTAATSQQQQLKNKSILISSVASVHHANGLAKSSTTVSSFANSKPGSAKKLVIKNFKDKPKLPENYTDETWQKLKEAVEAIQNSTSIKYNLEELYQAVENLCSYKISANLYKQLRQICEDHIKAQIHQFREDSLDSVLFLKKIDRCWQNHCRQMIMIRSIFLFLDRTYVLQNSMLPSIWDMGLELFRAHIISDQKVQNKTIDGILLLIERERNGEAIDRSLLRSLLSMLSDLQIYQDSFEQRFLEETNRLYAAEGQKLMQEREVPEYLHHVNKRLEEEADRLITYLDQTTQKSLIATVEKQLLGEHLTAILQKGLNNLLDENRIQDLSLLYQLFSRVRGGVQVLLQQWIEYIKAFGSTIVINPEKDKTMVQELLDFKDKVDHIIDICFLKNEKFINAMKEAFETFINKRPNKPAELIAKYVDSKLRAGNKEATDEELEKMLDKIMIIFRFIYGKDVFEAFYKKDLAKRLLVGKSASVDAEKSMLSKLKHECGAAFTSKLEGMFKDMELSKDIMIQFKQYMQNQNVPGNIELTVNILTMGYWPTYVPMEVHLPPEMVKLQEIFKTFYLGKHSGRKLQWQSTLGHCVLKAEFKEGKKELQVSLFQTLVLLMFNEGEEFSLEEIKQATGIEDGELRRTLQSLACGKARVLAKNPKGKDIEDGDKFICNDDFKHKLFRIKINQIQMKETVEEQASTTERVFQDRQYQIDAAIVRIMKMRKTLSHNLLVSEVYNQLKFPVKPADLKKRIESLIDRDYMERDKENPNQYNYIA
UniProt Q9UKT5: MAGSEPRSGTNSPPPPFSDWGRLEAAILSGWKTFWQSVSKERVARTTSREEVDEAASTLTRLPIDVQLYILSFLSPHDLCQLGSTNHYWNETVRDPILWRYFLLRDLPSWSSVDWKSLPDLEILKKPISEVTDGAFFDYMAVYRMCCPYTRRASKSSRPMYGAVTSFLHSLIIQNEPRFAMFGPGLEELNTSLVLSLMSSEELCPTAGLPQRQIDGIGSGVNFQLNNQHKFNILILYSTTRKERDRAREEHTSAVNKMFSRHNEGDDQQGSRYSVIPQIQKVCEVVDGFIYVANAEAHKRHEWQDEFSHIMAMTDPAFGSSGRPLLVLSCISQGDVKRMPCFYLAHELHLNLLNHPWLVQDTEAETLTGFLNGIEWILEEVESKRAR
UniProt Q9Y297: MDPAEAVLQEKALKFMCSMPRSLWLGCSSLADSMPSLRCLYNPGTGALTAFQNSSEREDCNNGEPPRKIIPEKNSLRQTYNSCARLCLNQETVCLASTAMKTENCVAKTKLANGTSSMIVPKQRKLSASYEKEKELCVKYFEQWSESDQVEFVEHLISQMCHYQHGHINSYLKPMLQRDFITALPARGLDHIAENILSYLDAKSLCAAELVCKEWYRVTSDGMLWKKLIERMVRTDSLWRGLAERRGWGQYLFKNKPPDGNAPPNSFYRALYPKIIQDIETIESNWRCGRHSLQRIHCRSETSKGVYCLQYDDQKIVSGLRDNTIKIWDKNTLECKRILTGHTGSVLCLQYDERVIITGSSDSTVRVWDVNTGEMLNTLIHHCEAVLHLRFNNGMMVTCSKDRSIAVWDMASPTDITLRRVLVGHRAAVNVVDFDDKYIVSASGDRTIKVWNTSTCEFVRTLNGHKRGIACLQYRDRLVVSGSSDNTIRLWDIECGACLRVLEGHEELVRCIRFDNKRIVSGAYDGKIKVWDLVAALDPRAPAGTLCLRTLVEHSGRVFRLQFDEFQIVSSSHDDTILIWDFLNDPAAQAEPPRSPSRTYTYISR
UniProt Q16659: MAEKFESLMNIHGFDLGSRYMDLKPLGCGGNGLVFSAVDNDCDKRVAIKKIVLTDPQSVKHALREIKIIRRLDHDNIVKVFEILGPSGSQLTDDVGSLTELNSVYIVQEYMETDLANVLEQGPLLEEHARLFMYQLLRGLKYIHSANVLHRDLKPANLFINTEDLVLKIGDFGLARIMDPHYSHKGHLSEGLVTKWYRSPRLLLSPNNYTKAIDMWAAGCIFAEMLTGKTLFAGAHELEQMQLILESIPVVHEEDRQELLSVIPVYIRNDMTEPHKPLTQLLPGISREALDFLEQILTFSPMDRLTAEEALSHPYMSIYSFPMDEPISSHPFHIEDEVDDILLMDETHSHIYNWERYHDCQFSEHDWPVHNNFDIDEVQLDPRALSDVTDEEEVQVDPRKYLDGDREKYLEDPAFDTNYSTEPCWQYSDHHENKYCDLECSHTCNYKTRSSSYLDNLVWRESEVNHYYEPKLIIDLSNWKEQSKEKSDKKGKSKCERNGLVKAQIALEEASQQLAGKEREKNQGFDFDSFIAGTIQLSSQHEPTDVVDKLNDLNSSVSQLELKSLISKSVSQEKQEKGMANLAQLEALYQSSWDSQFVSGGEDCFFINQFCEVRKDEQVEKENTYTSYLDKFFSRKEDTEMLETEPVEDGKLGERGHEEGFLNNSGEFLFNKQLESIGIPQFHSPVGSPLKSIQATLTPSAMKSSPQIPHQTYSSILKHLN
Myc-ERK3-FL-mtPDM1 (Q16659, form named): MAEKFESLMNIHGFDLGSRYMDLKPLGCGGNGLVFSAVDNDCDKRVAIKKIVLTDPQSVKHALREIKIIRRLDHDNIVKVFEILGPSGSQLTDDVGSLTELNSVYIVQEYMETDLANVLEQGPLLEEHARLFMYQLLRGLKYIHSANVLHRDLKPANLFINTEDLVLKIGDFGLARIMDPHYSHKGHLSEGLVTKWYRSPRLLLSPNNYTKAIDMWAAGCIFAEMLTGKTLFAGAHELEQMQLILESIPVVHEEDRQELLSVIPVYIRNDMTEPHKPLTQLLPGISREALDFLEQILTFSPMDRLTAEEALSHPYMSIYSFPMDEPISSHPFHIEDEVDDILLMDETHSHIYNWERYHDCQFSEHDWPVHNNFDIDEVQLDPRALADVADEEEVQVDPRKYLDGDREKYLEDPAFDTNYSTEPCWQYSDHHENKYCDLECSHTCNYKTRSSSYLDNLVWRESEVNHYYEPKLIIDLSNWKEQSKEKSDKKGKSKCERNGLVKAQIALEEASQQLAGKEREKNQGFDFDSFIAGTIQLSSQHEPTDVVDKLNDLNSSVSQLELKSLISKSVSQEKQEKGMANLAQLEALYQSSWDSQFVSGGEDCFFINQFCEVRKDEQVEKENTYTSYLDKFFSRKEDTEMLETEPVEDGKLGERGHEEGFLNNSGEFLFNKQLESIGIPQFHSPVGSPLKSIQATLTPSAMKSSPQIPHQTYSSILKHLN
Myc-ERK3-FL-mtPDM3 (Q16659, form named): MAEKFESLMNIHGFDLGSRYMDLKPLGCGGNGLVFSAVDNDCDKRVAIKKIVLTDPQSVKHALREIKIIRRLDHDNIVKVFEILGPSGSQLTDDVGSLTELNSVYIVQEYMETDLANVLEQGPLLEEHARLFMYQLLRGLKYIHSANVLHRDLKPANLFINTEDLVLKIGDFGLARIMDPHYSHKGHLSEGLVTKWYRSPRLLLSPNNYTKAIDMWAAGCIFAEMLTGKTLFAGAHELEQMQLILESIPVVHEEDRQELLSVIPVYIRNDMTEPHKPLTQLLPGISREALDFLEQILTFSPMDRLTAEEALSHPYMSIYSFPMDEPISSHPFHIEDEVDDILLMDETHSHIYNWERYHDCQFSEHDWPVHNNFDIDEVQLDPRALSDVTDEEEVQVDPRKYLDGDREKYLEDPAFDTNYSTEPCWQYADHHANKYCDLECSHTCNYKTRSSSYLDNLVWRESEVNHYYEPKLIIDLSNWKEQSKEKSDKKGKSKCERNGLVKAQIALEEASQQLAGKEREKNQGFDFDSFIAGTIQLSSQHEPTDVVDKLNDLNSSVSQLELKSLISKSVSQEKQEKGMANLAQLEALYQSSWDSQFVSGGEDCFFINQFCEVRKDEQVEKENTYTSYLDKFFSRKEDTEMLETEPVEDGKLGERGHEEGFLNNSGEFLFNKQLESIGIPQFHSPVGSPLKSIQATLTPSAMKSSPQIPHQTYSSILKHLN
Myc-ERK3-FL-mtPDM4 (Q16659, form named): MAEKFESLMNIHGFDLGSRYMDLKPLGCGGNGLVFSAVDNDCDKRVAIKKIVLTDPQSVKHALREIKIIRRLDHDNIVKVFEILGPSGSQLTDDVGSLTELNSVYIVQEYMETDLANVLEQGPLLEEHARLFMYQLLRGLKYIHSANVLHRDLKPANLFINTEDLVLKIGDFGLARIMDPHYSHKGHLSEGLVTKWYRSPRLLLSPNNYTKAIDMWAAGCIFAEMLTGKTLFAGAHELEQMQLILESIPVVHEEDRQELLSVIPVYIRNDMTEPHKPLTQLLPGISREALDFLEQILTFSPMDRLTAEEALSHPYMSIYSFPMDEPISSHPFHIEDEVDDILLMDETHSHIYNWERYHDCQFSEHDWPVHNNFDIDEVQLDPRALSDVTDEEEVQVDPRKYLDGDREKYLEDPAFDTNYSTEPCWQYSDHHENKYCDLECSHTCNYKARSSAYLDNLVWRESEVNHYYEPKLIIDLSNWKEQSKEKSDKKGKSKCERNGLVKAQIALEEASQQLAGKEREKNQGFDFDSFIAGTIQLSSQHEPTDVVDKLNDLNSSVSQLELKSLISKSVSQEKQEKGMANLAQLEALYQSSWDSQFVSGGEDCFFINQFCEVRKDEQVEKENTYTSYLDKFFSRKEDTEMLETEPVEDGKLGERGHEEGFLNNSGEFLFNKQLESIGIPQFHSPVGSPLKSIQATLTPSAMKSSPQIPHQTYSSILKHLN
Myc-ERK3-FL-mtPDM5 (Q16659, form named): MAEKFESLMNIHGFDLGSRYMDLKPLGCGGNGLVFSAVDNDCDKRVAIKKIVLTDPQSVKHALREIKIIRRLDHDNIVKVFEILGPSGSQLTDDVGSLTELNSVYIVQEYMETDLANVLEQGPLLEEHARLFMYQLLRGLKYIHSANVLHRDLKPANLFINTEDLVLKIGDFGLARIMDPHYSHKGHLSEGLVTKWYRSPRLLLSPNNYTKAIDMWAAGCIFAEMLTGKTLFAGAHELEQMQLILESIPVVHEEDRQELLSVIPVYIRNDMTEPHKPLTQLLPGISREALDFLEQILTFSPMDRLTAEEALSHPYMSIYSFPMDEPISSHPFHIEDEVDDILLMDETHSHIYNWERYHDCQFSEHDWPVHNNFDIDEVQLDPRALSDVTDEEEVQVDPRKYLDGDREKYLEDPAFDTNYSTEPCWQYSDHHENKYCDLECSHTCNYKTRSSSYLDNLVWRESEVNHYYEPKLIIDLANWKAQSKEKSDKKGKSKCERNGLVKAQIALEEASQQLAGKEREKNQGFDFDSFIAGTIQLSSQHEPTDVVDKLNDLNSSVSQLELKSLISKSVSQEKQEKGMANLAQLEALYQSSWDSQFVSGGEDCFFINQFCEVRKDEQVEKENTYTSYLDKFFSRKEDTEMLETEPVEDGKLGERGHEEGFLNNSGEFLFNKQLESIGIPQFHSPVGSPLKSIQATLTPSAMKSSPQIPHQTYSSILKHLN

Experiments:
Flag-FBXW7 [1] = target: Flag-FBXW7 (UniProt Q969H0); assay: co-IP; lysates (300–400 µg) of cells expressing the tagged proteins (HEK293T where named); antibody 2 µg overnight at 4 °C, protein G Sepharose, washes in 20 mM Tris pH 8.0, 100 mM NaCl, 1 mM EDTA, 0.5% NP-40; Western blotting; Fig. 3d with MG132 10 µM, 4 h
HA-FBXW7 = HA-FBXW7 (UniProt Q969H0); assay: as above
[2] = target: Myc-FBXW7-1–707 (full-length FBXW7) (UniProt Q969H0); assay: as above
[3] = target: FBXW7 (tag not stated; Fig. 1f, FBXW7-wt of Fig. 3d, Fig. 4g) (UniProt Q969H0); assay: as above
cullin 1 = cullin 1 (UniProt Q13616); assay: as above
cullin 4B = cullin 4B (UniProt Q13620); assay: as above
FBXO17 = target: T1, FBXO17 (UniProt Q96EF6); assay: as above
T1 sequence: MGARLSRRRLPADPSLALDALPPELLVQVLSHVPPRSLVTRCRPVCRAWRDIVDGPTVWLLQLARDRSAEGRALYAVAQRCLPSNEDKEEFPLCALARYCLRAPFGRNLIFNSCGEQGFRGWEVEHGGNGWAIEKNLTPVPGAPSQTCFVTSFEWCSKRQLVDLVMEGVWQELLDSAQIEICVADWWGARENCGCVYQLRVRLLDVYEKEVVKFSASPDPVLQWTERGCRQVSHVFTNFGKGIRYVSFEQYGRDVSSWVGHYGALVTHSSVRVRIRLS

[4] = target: Myc-FBXW7-1–278 (WD40/F-box domain-deleted mutant) (UniProt Q969H0); assay: as above
[5] = target: Myc-FBXW7-1–324 (WD40 domain-deleted mutant) (UniProt Q969H0); assay: as above
FBXO4 = FBXO4 (UniProt Q9UKT5); assay: as above
FBXO6 = target: T2, FBXO6 (UniProt Q9NRD1); assay: as above
T2 sequence: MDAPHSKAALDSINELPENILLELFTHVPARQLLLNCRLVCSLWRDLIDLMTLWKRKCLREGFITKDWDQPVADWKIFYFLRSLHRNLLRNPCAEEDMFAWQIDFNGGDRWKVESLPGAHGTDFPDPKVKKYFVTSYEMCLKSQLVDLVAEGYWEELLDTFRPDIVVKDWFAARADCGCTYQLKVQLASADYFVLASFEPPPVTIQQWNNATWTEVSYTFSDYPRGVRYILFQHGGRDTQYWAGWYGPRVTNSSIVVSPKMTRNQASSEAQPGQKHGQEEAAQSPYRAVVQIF

FBXW2 (Flag-tagged) = target: T3, FBXW2 (Flag-tagged) (UniProt Q9UKT8); assay: co-IP; ex vivo Flag-tag pulldown of Flag-tagged FBXW subfamily members; endogenous ERK3 detected by Western blotting
T3 sequence: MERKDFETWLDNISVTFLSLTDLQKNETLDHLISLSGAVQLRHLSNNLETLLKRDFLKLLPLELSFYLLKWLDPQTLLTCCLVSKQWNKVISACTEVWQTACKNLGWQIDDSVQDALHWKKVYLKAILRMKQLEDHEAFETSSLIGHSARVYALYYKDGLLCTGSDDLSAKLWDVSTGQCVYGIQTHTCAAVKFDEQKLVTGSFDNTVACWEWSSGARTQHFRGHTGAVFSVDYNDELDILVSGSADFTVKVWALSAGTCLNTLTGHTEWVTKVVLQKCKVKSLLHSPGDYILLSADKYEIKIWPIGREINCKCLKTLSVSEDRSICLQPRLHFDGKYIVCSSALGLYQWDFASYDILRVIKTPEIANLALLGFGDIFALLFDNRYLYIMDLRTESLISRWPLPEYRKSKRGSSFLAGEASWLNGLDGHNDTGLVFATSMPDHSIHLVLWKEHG

FBXW5 (Flag-tagged) = FBXW5 (Flag-tagged) (UniProt Q969U6); assay: as above
βTrCP2 (Flag-tagged) = βTrCP2 (Flag-tagged) (UniProt Q9UKB1); assay: as above
FBXW4 (Flag-tagged) = target: T4, FBXW4 (Flag-tagged) (UniProt P57775); assay: as above
T4 sequence: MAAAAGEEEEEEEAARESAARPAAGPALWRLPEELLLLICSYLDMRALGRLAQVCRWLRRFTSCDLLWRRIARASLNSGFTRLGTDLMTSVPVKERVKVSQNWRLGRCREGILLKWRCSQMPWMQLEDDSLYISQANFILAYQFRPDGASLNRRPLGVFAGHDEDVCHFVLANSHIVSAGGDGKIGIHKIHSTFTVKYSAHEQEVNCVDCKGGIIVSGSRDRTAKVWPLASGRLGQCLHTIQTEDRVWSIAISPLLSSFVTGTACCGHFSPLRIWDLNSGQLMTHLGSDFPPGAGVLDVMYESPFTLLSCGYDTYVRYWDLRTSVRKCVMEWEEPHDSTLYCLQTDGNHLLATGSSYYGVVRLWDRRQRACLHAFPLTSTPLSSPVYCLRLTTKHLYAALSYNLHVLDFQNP

Flag-FBXW7 [6] = target: Flag-FBXW7 (UniProt Q969H0); assay: as above
βTrCP1 (Flag-tagged) = βTrCP1 (Flag-tagged) (UniProt Q9Y297); assay: as above
FBXW8 (Flag-tagged) = target: T5, FBXW8 (Flag-tagged) (UniProt Q8N3Y1); assay: as above
T5 sequence: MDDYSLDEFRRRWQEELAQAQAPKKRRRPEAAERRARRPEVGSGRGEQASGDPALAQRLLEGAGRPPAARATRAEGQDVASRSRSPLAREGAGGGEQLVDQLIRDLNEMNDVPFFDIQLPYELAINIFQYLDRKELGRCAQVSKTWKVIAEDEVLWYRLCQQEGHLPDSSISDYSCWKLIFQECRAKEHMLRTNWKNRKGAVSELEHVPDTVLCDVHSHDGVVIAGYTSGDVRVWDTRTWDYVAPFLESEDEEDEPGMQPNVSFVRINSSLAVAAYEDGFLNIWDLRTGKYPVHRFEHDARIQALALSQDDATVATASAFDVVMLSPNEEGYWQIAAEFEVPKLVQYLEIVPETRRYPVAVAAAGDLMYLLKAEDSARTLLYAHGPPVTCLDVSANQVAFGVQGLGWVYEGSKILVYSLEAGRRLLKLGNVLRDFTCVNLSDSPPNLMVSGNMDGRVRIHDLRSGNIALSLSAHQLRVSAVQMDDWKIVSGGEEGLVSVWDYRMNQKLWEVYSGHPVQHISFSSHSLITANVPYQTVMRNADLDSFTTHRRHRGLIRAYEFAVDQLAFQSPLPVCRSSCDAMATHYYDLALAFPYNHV

## Myc-ERK3-dN481 (from UniProt Q16659 481-721) (domain or fragment)
Flag-FBXW7 [1]
  binding: no binding

## Myc-ERK3-FL-mtPDM1 (from UniProt Q16659 1-721)
HA-FBXW7
  binding: binds

## Myc-ERK3-1–340 (from UniProt Q16659 1-340) (domain or fragment)
HA-FBXW7
  binding: no binding

## Myc-ERK3-1–721 (from UniProt Q16659 1-721)
HA-FBXW7
  binding: binds

## Myc-ERK3-1–363 (from UniProt Q16659 1-363) (domain or fragment)
HA-FBXW7
  binding: no binding

## Gal4-ERK3 (from UniProt Q16659 1-721)
[2]
  binding: binds

## Myc-ERK3-FL-mtPDM3 (from UniProt Q16659 1-721)
HA-FBXW7
  binding: binds

## ERK3 (construct not stated; Figs. 1c, 1d, 1f, 3c) (from UniProt Q16659 1-721)
[3]
  binding: binds
Cullin 1
  binding: binds
Cullin 4B
  binding: binds
FBXO17
  binding: binds
[4]
  binding: no binding
[2]
  binding: binds
[5]
  binding: no binding
FBXO4
  binding: binds
FBXO6
  binding: binds

## Myc-ERK3-FL-mtPDM4 (from UniProt Q16659 1-721)
HA-FBXW7
  binding: binds

## endogenous ERK3 (from UniProt Q16659 1-721)
FBXW2 (Flag-tagged)
  binding: no binding
FBXW5 (Flag-tagged)
  binding: no binding
βTrCP2 (Flag-tagged)
  binding: no binding
FBXW4 (Flag-tagged)
  binding: no binding
Flag-FBXW7 [6]
  binding: binds
βTrCP1 (Flag-tagged)
  binding: no binding
FBXW8 (Flag-tagged)
  binding: no binding

## Myc-ERK3-1–481 (from UniProt Q16659 1-481) (domain or fragment)
HA-FBXW7
  binding: binds

## Myc-ERK3-FL-mtPDM5 (from UniProt Q16659 1-721)
HA-FBXW7
  binding: binds
